Data reported in EP3970494A1 (priority 2020, dated 2022).

How the values were obtained:
Botrytis cinerea = test system: Botrytis cinerea
Protocol: (§1) The active compounds were formulated separately as a stock solution having a concentration of 10000 ppm in dimethyl sulfoxide. The stock solutions were mixed according to the ratio, pipetted onto a micro titer plate (MTP) and diluted with water to the stated concentrations.
(§2) After the addition of the respective fungal spore suspensions as described below, the plates were placed in a water vapor-saturated chamber at a temperature of 18 °C. Using an absorption photometer, the MTPs were measured at 405 nm 7 days after the inoculation.
Use example 3. Activity against the grey mold Botrytis cinerea (BOTRCI)
A spore suspension of Botriytis cinerea in an aqueous biomalt or yeast-bactopeptone-sodiumacetate solution was used.
(§3) The measured parameters were compared to the growth of the active compound-free control variant (100%) and the fungus-free blank value to determine the relative growth in % of the pathogens in the respective active compounds.

Fusarium culmorum = test system: Fusarium culmorum
Protocol: as §1, §2
Use example 6. Activity against Fusarium culmorum (FUSACU)
A spore suspension of Fusarium culmorum in an aqueous biomalt or yeast-bactopeptone-glycerine or DOB solution was used.
as §3

Septoria tritici = test system: Septoria tritici
Protocol: as §1, §2
Use example 4. Activity against wheat leaf blotch pathogen Septoria tritici (SEPTTR)
A spore suspension of Septoria tritici in an aqueous biomalt or yeast-bactopeptone-glycerine or DOB solution was used.
as §3

Row | Compound | Fungal growth at 31 ppm (%) BOTRCI (Botrytis cinerea) [%] | Fungal growth at 31 ppm (%) FUSACU (Fusarium culmorum) [%] | Fungal growth at 31 ppm (%) SEPTTR (Septoria tritici) [%]
1 | CNC(=O)/C(=N/OC)c1cccc(C)c1CO/N=C(\C)c1cc(/C(C)=N/OC)ccn1 [Example 30, (2E)-2-Methoxyimino-2-[2-[[(E)-1-[4-[(E)-N-methoxy-C-methyl-carbonimidoyl]-2-pyridyl]ethylideneamino]oxymethyl]-3-methyl-phenyl]-N-methyl-acetamide] | 18 | – | –
2 | CO/N=C(/C(=O)OC)c1cccc(C)c1CO/N=C(\C)c1cnc(C)c(F)c1 [Example 100] | – | 20 | –
3 | (2E)-2-methoxvimino-N-methyl-2-[3-methyl-2-[[(E)-1-[2-methyl-5-(trifluoromethyl)pyrazol-3-yl]ethylideneamino]oxymethyl]phenyl]acetamide [Example 118] | – | – | 0
4 | (2E)-2-methoxyimino-N-methyl-2-[3-methyl-2-[[(E)-1-[4-(trifluoromethyl)-6-vinyl-2-pyridyl]ethylideneamino]oxymethyl]phenyl]acetamide [Example 114] | 0 | 1 | 0
5 | CO/N=C(\C)c1ccnc(/C(C)=N/OCc2c(C)cccc2/C(=N\OC)C(=O)OC)c1 [Example 29, Methyl (2E)-2-methoxyimino-2-[2-[[(E)-1-[4-[(E)-N-methoxy-C-methyl-carbonimidoyl]-2-pyridyl]ethylideneamino]oxymethyl]-3-methyl-phenyl]acetate] | 14 | – | –
6 | CO/N=C(/C(=O)OC)c1cccc(C)c1CO/N=C(\C)c1cc(C(F)(F)F)nn1C [Example 117, Methyl (2E)-2-methoxyimino-2-[3-methyl-2-[[(E)-1-[2-methyl-5-(trifluoromethyl)pyrazol-3-yl]ethylideneamino]oxymethyl]phenyl]acetate] | 18 | – | –
7 | CO/N=C(/C(=O)OC)c1cccc(C)c1CO/N=C(\C)c1cc(C(F)(F)F)ncn1 [Example 113, Methyl (2E)-2-methoxyimino-2-[3-methyl-2-[[(E)-1-[6-(trifluoromethyl)pyrimidin-4-yl]ethylideneamino]oxymethyl]phenyl]acetate] | 0 | – | –
8 | CO/N=C(/C(=O)OC)c1cccc(C)c1CO/N=C(\C)c1cc(C(F)(F)F)cc(C)n1 [Example 46] | 0 | – | –
